From PMC3242641 (European journal of medicinal chemistry, 2011)
Read-outs that look alike come from different tables or passages of the source.

Experiments:
[1] = molecular target: M184V RT (Human immunodeficiency virus type 1 group M subtype B, UniProt P04585, M771V); assay: biochemical; type: biochemical
[2] = test system: M184V RT; conditions: M184V vs WT RT, line with footnote e; cited from earlier work
[3] = test system: M184V RT; assay: biochemical; type: biochemical; conditions: M184V vs WT RT

Row | Compound | Kd [1] | Resistance (n-fold) = selectivity M184V/selectivity WT [3] | further results
1 | Cc1cn([C@H]2C[C@H](N=[N+]=[N-])[C@@H](CO[P@](=O)(O)O[P@](=O)(O)OP(=O)(O)O)O2)c(=O)[nH]c1=O [L-AZT-TP] | > 60 µM | – | –
2 | Nc1ccn([C@@H]2CS[C@H](COP(=O)(O)OP(=O)(O)OP(=O)(O)O)O2)c(=O)n1 [Compound 3TC-TP] | – | – | Resistance (n-fold) = selectivity M184V/selectivity WT [2]: 128 n-fold
3 | [N-]=[N+]=N[C@@H]1C[C@@H](n2cnc3c(N)nc(N)nc32)O[C@H]1COP(=O)(O)OP(=O)(O)OP(=O)(O)O [Compound 20-TP] | – | 5.4 n-fold | –
4 | [N-]=[N+]=N[C@@H]1C[C@@H](n2cnc3c(N)ncnc32)O[C@H]1COP(=O)(O)OP(=O)(O)OP(=O)(O)O [L-AZA-TP] | – | 3 n-fold | –
5 | [N-]=[N+]=N[C@@H]1C[C@@H](n2cnc3c(O)nc(N)nc32)O[C@H]1COP(=O)(O)OP(=O)(O)OP(=O)(O)O [L-AZG-TP] | > 60 µM | – | –
